For 153 variants, enrichment ratio results are on record in a collection of fitness landscapes (doi:10.1126/science.1257360).

Some of the results follow.

B1: PhoQ; a variant is named by its letters at X, in order, P23837 (parent)
chain: MKKLLRLFFPLSLRVRFLLATAAVVLVLSLAYGMVALIGYSVSFDKTTFRLLRGESNLFYTLAKWENNKLHVELPENIDKQSPTMTLIYDENGQLLWAQRDVPWLMKMIQPDWLKSNGFHEIEADVNDTSLLLSGDHSIQQQLQEVREDDDDAEMTHSVAVNVYPATSRMPKLTIVVVDTIPVELKSSYMVWSWFIYVLSANLLLVIPLLWVAAWWSLRPIEALAKEVRELEEHNRELLNPATTRELTSLVRNLNRLLKSERERYDKYRTTLTDLTHSLKTPLXXLQXXLRSLRSEKMSVSDAEPVMLEQISRISQQIGYYLHRASMRGGTLLSRELHPVAPLLDNLTSALNKVYQRKGVNISLDISPEISFVGEQNDFVEVMGNVLDNACKYCLEFVEISARQTDEHLYIVVEDDGPGIPLSKREVIFDRGQRVDTLRPGQGVGLAVAREITEQYEGKIVAGESMLGGARMEVIFGRQHSAPKDE

Variants of B1 are the subject of this test. Briefly: enrichment ratio after two sorts for PhoP signalling (ratio (wild type AVST 3.29)); higher = more functional. Particulars: with PhoP (E. coli).
For GRRM, the enrichment ratio is not above 0.25.

Consider IWMY, for which the enrichment ratio is not above 0.25. For FWWA, the enrichment ratio is not above 0.25.

For TEPH, the enrichment ratio is not above 0.25. In the case of YERQ, the enrichment ratio is not above 0.25.

On to VGSQ, for which the enrichment ratio was not above 0.25.

On to TGGH, for which the enrichment ratio was determined as 9.94.

Take IWWT: the enrichment ratio is not above 0.25. HHHQ: the enrichment ratio is not above 0.25.

Turning to WFEQ, the enrichment ratio is not above 0.25.

For VNIR, the enrichment ratio was not above 0.25. For INTV, the enrichment ratio was not above 0.25. With VEHM the figure was not above 0.25.

Take NVFH: the enrichment ratio is not above 0.25.

Regarding RWTC, the enrichment ratio is not above 0.25.

With DFGP, the enrichment ratio is not above 0.25. For SFKQ, the enrichment ratio is not above 0.25. On to PLGR, for which the enrichment ratio is not above 0.25. As for KKAC, the enrichment ratio is not above 0.25. With YEWP, the enrichment ratio was not above 0.25. As to FERP, the enrichment ratio was not above 0.25. Take HDYK: the enrichment ratio is not above 0.25. Consider QQCI, for which the enrichment ratio was not above 0.25. Then EKTN, with not above 0.25; and YPMR, with not above 0.25; and RLMQ, with not above 0.25. Regarding EEGA, the enrichment ratio was not above 0.25. For the variant YLKN, the enrichment ratio was not above 0.25. Regarding MAMI, the enrichment ratio is 8.98. Regarding LHSI, the enrichment ratio was not above 0.25.

Consider YMGK, for which the enrichment ratio was not above 0.25. Consider MSSP, for which the enrichment ratio was not above 0.25. As for SNIN, the enrichment ratio was determined as 0.491. Consider SYKI, for which the enrichment ratio was not above 0.25. Then KEHI, with not above 0.25; and DIRW, with not above 0.25. As for KIMH, the enrichment ratio is not above 0.25.

As to EIEY, the enrichment ratio is not above 0.25. Regarding ARNV, the enrichment ratio is not above 0.25. KEVL: the enrichment ratio was not above 0.25. For YHDR, the enrichment ratio is not above 0.25.

For NIMS, the enrichment ratio is not above 0.25. For SGKN, the enrichment ratio was not above 0.25. As for DTKC, the enrichment ratio is not above 0.25. As to LNRQ, the enrichment ratio is not above 0.25. Then NVGS, with not above 0.25; and LYFF, with not above 0.25; and RNQM, with not above 0.25. For the variant WFMK, the enrichment ratio is not above 0.25. As for MIQR, the enrichment ratio is not above 0.25. For the variant TLFW, the enrichment ratio was not above 0.25. For the variant KTQS, the enrichment ratio was not above 0.25.

As to LWQF, the enrichment ratio was not above 0.25.

CMSC: the enrichment ratio came out at 39.5. On to KDIN, for which the enrichment ratio was not above 0.25. Then GTSM, with 10.6; and FSKM, with not above 0.25; and IDKC, with not above 0.25. Then VCDY, with not above 0.25. With AHML, the enrichment ratio worked out at 4.34.

As for TTLF, the enrichment ratio came to 4.92. As for KVFN, the enrichment ratio was not above 0.25. As to LYDD, the enrichment ratio is not above 0.25.

Take QIYI: the enrichment ratio amounted to 5.43.

On to KNEL, for which the enrichment ratio is not above 0.25. With SAEH the figure was not above 0.25; with NTVV, not above 0.25. For PSLQ, the enrichment ratio was not above 0.25. In the case of PEVS, the enrichment ratio was not above 0.25.

For WQSF, the enrichment ratio is not above 0.25. For the variant EGKL, the enrichment ratio is not above 0.25. With SELK the figure was 7.11; with RPIA, not above 0.25; with TNWV, not above 0.25.

Turning to GWTY, the enrichment ratio was not above 0.25. Then LVYF, with not above 0.25; and DLPV, with not above 0.25. On to SMML, for which the enrichment ratio is 14.5. Consider GEPR, for which the enrichment ratio was not above 0.25. With SHND, the enrichment ratio is not above 0.25. Then MTFI, with 1.99; and NSTC, with not above 0.25.

With VQWC, the enrichment ratio was not above 0.25.

YKNW: the enrichment ratio was not above 0.25. As to VHMY, the enrichment ratio was not above 0.25.

In the case of LTEF, the enrichment ratio was not above 0.25. Then AFEY, with not above 0.25; and GTNQ, with not above 0.25. As for DNDW, the enrichment ratio was not above 0.25. With QHVS, the enrichment ratio was not above 0.25.

Consider NWKR, for which the enrichment ratio was not above 0.25. Then NWMH, with not above 0.25.

In the case of IWDR, the enrichment ratio was not above 0.25. As for SCSC, the enrichment ratio is 9.53. In the case of TWLF, the enrichment ratio is not above 0.25. Turning to AKQE, the enrichment ratio is not above 0.25. Turning to RLVK, the enrichment ratio is not above 0.25. For NEKY, the enrichment ratio was not above 0.25. In the case of RMGL, the enrichment ratio was not above 0.25. With PTPM, the enrichment ratio was not above 0.25. With EPFE, the enrichment ratio was not above 0.25. With QSWS, the enrichment ratio turned out to be 2.8. Turning to TYNY, the enrichment ratio was not above 0.25. On to ATAL, for which the enrichment ratio was determined as 4.51. Turning to MASN, the enrichment ratio was 0.887.

Regarding FSPW, the enrichment ratio is not above 0.25. For the variant MFAE, the enrichment ratio was not above 0.25. For the variant KMHR, the enrichment ratio was not above 0.25. Then LHNA, with not above 0.25; and LSVE, with not above 0.25; and RCVC, with not above 0.25. Regarding NTFY, the enrichment ratio is not above 0.25.

Take QPSV: the enrichment ratio was not above 0.25. THLA: the enrichment ratio stood at 6.39. With QRQF the figure was not above 0.25. With NIGT, the enrichment ratio is not above 0.25. In the case of RPDC, the enrichment ratio is not above 0.25. Turning to YDLI, the enrichment ratio is not above 0.25. With HPFP the figure was not above 0.25.

Consider SNMQ, for which the enrichment ratio is 9.49. Take DSFT: the enrichment ratio is not above 0.25. For the variant MVYY, the enrichment ratio was not above 0.25. Take TIFR: the enrichment ratio was not above 0.25. Regarding VLYH, the enrichment ratio was not above 0.25. Then FMII, with not above 0.25; and QGWG, with 7.39; and KMMS, with not above 0.25. SWKA: the enrichment ratio is not above 0.25. With PQGM the figure was not above 0.25; with VWKL, not above 0.25; with QRWA, not above 0.25. Turning to KPCI, the enrichment ratio is not above 0.25. Then LSWR, with not above 0.25. For the variant YCKM, the enrichment ratio was not above 0.25. Then SAGS, with 3.14; and AWSP, with 1.37. Regarding EMYK, the enrichment ratio was not above 0.25. NKTT: the enrichment ratio is not above 0.25. As to GGYA, the enrichment ratio is not above 0.25. As to LDGM, the enrichment ratio is not above 0.25. Take RFPA: the enrichment ratio is not above 0.25. Then PCTY, with not above 0.25. In the case of MQSH, the enrichment ratio was not above 0.25. As for RTQV, the enrichment ratio is not above 0.25. Take TQAS: the enrichment ratio amounted to 6.39. With TDRA the figure was not above 0.25; with GTLN, 4.21.

As to FQWS, the enrichment ratio was not above 0.25.

As to MMAQ, the enrichment ratio turned out to be 5.74. On to VAAF, for which the enrichment ratio was not above 0.25. With MILW, the enrichment ratio was not above 0.25. Take IYHD: the enrichment ratio was not above 0.25.

Take EMVW: the enrichment ratio was not above 0.25.
